Patent publication US20230174595A1 (UNIVERSITY OF LOUISVILLE RESEARCH FOUNDATION, published 2023)

Molecular target: T1, recombinant His-tagged HIV-1 gp120 ZM53M.PB12 (Clade C) (HIV-1 strain ZM53M.PB12)
T1 construct: domain: gp120
Experiment: SPR (Biacore X100), His-tagged gp120 captured on NTA chip, steady state

B1: AvFc lectibody (Avaren fused via a linker to the Fc region of human IgG1) (Fc fusion)
chain: ASGTIRNAETGRCLDSNYNGNVYTLPCNGGNYQRWTGPGDGTVRNAETGRCLDSNYDGAVYTLPCNGGSYQKWTGPGDGTIQNAETGRCLDSNYNGNVYTLPCNGGNYQKWTGGGGSV[human IgG1 Fc left out here]
Kd: 4.4 nM
